Results taken from PubChem BioAssay AID1159614 (National Center for Advancing Translational Sciences (NCATS), 2016).
In all, about 45,000 compounds went through this assay and about 65 (0.1%) were called active. The call rests on the fitted dose curve; in most records, active means well fitted activation curve with a large enough effect; inconclusive means small, poorly fitted or top-dose-only effect; inactive means no such curve, though single readings can be large or run the other way. Some of the results follow.

target: Galactocerebrosidase (Homo sapiens) (UniProt P54803); assay: A Novel Cell-Based Assay to Identify Small Molecules for B -Galactocerebrosidase; conditions: 145M-Twi-hGALC-G270D cells (Twitcher mouse brain line with human GALC G270D), HMU-beta-Gal fluorescence, 48 h; series mostly up to 57.5 µM; activation: at the top concentration; further: 0% is about no effect; nearly all actives have a fitted effect of over 65% in size
Chain of UniProt P54803 (P54803 whole entry, looked up): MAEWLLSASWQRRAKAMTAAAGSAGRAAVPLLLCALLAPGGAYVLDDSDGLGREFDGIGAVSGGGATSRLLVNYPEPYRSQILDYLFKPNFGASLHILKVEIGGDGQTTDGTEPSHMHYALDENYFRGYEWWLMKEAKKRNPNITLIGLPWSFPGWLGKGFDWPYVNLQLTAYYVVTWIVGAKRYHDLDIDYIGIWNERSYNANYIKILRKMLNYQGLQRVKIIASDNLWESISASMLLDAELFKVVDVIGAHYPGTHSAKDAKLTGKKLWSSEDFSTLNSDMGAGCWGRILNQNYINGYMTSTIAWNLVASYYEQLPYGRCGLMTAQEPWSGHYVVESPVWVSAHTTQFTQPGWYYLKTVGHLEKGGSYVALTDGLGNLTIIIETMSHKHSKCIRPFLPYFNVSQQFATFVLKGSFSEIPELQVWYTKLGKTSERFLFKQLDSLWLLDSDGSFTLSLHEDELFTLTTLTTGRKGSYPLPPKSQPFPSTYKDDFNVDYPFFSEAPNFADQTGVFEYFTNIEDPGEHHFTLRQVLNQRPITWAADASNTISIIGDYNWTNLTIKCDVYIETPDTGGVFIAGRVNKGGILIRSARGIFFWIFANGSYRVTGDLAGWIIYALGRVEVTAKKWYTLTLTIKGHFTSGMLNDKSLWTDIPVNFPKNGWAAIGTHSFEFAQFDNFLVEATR
Procedure, shortened: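 Brain-derived Twitcher mouse 145M-Twi cells stably expressing human GALC-G270D or wild-type GALC, treated live, then residual GALC activity read by fluorescence of HMU-b-Gal substrate (0.1 mM final) in citrate-phosphate buffer pH 5.2 with sodium taurocholate. Signal increase indicates enhancement.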

activation, inactive:
O=C1SC(Nc2ccc(Cl)cc2)C(=O)N1Cc1ccccc1 (configuration not stated) 4.11%, CCCc1cc(=O)n2[nH]c(NCc3ccc(CC)cc3)nc2n1 -16.1%, O=C1c2[nH]nc(-c3ccccc3)c2C(c2ccccc2)N1c1cccc(C(F)(F)F)c1 (configuration not stated) -3.38%, CCCCCC(N)=O -17.9%, CCCCNC(=O)C1=CC(c2ccc3c(c2)OCO3)=NS(=O)(=O)N1C -3.97%, CCCC(=O)Nc1nnc(SCc2cc(=O)c3ccc(C)cc3[nH]2)s1 -37.9%, COc1cccc(C(=O)NCC(=O)OCc2cc(=O)n3nc(C)sc3n2)c1 -10.5%, O=C(CSc1ncc(S(=O)(=O)c2ccc(Cl)cc2)c(=O)[nH]1)Nc1ccc2c(c1)OCCO2 -14.1%, Cc1ccc(Cl)cc1N1CCN(C(=O)Cn2ncc3c([nH]c4ccccc43)c2=O)CC1 2.82%, Cc1ccc(-n2nc(CO)c(C(=O)NCCc3ccccc3)n2)cc1 -9.34%, COc1cccc(-n2c(=O)c3sc4ccccc4c3n(CC(=O)Nc3ccccc3OC)c2=O)c1 -16.3%, CCOc1ccc(N(C)C(=O)C2CCN(S(=O)(=O)c3ccc4c(c3)CCCN4C(C)=O)CC2)cc1 -19.5%, CCC(Sc1nc2ccncc2[nH]1)C(=O)Nc1ccc(F)cc1 (configuration not stated) -15.7%, C[C@H]1C[C@H]2[C@@H]3CCC4=CC(=O)C=C[C@]4(C)[C@@]3(Cl)[C@@H](O)C[C@]2(C)[C@@]1(O)C(=O)CO -19.6%, CCOC(=O)N1CCN(C(=O)c2ccc3c(c2)N(Cc2cc(C)ccc2C)C(=O)c2ccccc2S3=O)CC1 (configuration not stated) -6.96%, COc1ccc(CCNC(=O)CCc2cn(Cc3ccc(C)cc3)c3ccccc23)cc1OC -3.44%, CCCCOc1nnc(-c2ccc(OCC)cc2)c2ccccc12 -12.4%, O=C(CSc1nnc(-c2ccc(Cl)cc2)o1)N1CCc2ccccc21 -9.04%, Cc1ccc(Cn2cnc3c(oc4ccccc43)c2=O)cc1 -6.07%, Cc1cc(C)cc(NC(=O)C(NS(=O)(=O)c2cccc3nsnc23)c2ccccc2)c1 (configuration not stated) -27.6%, O=C(Nc1onc2c1CCCC2)c1ccc(Cl)cc1 -3.83%, CCc1nc2nc(C)cc(Nc3ccc(Br)cc3F)n2n1 -8.85%, COc1cc2nc(N3CCN(C(=O)C4CCCO4)CC3)nc(N)c2cc1OC (configuration not stated) -10.7%, Cc1ccccc1NC(=O)c1c2c(nc3ccccc13)C(=O)N(C1CCCCC1)C2 -6.16%, CCCCn1c2ccccc2c2nnc(SCC(=O)Nc3ccc(NC(C)=O)cc3)nc21 -27.8%, Cc1oc2ccc(O)c(CN(C)Cc3ccccc3)c2c1C(=O)Nc1cccc(Cl)c1C -9.35%, Cc1ccc2c(=O)c(C(=O)c3ccc(F)cc3)cn(CC(=O)NC3CCCCC3)c2n1 -11.7%, CC(=O)Nc1ccc(S(=O)(=O)Nc2ccc(-c3cn4c(C)csc4n3)cc2)cc1 -6%, COC(=O)c1cc(S(=O)(=O)N2CCN(c3cccc(C)c3)C(C)C2)c[nH]1 (configuration not stated) -11.8%, COc1ccccc1-c1cc(C(F)(F)F)nc(S(=O)(=O)CCCC(=O)Nc2cc(C)ccc2O)n1 -11.3%, Cc1cccc(-c2nnc3n(CCc4ccccc4)c(=O)c4ccccc4n23)c1 -16.5%, CCOc1ccc(-n2c(SCC(=O)NCc3ccco3)nc3c([nH]c4ccccc43)c2=O)cc1 -1.67%, COc1ccc2c(Sc3ccccc3)c(C(=O)NCc3ccc(OC(C)C)cc3)[nH]c2c1 -7.35%, COc1ccc(-c2nc3ccc(NS(=O)(=O)c4ccccc4)cc3o2)cc1 1.74%, COc1cccc(CNC(=O)c2cc3n(n2)CCCN(Cc2ccc(C)cc2)C3=O)c1OC -10.3%, CCOc1ccc(NC(=O)c2c(NC(=O)Cc3ccccc3)sc3c2CCCC3)cc1 -0.451%, CCN(Cc1ccccc1)C(=O)Cn1c(=O)n(-c2ccc(OC)cc2OC)c(=O)c2c(C)c(C)sc21 -9.56%, CCOc1ccc(CNC(=O)c2ccc(-c3nc(CSc4ccc(C)cc4)c(C)o3)cc2)cc1 -7.16%, COc1ccc(Cl)cc1NC(=O)Cn1c(=O)n(Cc2ccco2)c(=O)c2ccc(C(=O)NC3CCCC3)cc21 -20.3%, Cc1ccc(NC(=O)c2sc(-n3nc(C)c(Cc4ccc(Cl)cc4)c3C)nc2C)cc1 -0.685%, Cc1ccc(-n2c3nc(=O)[nH]c(=O)c-3cc3c(Cl)cccc32)cc1 -13.3%, Cc1ccc(Cn2ccnc2SCC(=O)Nc2ccc3c(c2)OCO3)cc1 -5.66%, Cc1ccc(C)c(NC(=O)N2CCN(C)c3ncccc32)c1 -27.7%, CC(=O)N1CCOc2cc(S(=O)(=O)NCc3ccc(C)cc3)c(Cl)cc21 13.6%, O=C(/C=C\c1ccc2c(c1)OCO2)NC1CC(=O)N(c2ccc(Cl)cc2)C1 (configuration not stated) -10.8%, COc1ccc(C2(Nc3cccc(C(=O)O)c3C)C(=O)c3ccccc3C2=O)cc1 -14.9%, Cc1ccc(NC(=O)C2CCN(S(=O)(=O)c3c(C)noc3C)CC2)c(C)c1 -15.5%, COc1ccc(-c2csc3nc(-c4ccccc4C)oc(=O)c23)cc1OC 3.78%, CCOC(=O)c1c(C)oc2ncnc(N3CCN(c4ccccc4F)CC3)c12 -13.2%, O=C(Cc1cccs1)NC1CC(=O)N(c2cccc(F)c2)C1 (configuration not stated) -6.04%, COc1ccc(NC(=O)CSc2oc(-c3cccs3)nc2S(=O)(=O)c2ccc(C)cc2)c(OC)c1 -22.9%, CCOc1ccccc1NC(=O)c1cc(=O)c2ccc(C)cc2o1 -11.4%, CCSc1nc(-c2ccccc2OC)nc2c1Cc1c(CO)cnc(C)c1O2 -11.2%, Cc1ccc2c(CN3CCN(C(=O)c4ccc(F)cc4)CC3)cc(=O)oc2c1 -8.4%, Cc1ccc(OCC(=O)N(c2ccc(C)cc2)S(=O)(=O)c2ccc(Cl)cc2)cc1 -10.9%, Cn1c(=O)n(C)c2cc(NS(=O)(=O)c3ccc(F)cc3)ccc21 -9.05%, COc1cccc(C(=O)Nc2ccc3nc(SCC(=O)N4CCOCC4)sc3c2)c1 -15.9%, Cc1cc(C)n2c(Nc3ccc(Cl)cc3)c(-c3ccsc3)nc2n1 -7.64%, CCCCS(=O)(=O)c1oc(-c2cccs2)nc1S(=O)(=O)c1ccccc1 -13.3%, COc1cc2nc(NCCC(C)C)n3nc(-c4ccccc4)nc3c2cc1OC -7.34%, COc1ccccc1CNC(=O)CN1C(=O)COc2ccc(S(=O)(=O)Nc3ccccc3)cc21 -10.9%, COc1ccc(C2CC(=O)NC(NC(=O)c3ccc(Br)cc3)=N2)c(OC)c1OC (configuration not stated) -6.97%
